Measurements: PubChem BioAssay AID488969 (Vanderbilt High Throughput Screening Facility, 2010)
Over roughly 110,000 compounds, “z-score” has its median near -0.1; the highest 2% begin near 2. The list shows a part of the results. Active and inactive are the calls of the source.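 Rule for the calls: active = z-score in the third read window above 3 or below -3; inactive = the rest.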

The compounds below were run against Metabotropic glutamate receptor 8 (Rattus norvegicus) (UniProt P70579) (assay: mGluR8 Gi/Go-coupled signaling modulation – cell-based, rat, thallium flux, HTS, primary screen (AID 488969)). Conditions: HEK293 rat mGluR8, GIRK (G protein-gated inwardly rectifying potassium channel) thallium flux, FluoZin2; at 10 µM; stronger effect = higher value; submaximal glutamate (EC20) added with thallium.
UniProt P70579, sequence (P70579 whole entry, looked up): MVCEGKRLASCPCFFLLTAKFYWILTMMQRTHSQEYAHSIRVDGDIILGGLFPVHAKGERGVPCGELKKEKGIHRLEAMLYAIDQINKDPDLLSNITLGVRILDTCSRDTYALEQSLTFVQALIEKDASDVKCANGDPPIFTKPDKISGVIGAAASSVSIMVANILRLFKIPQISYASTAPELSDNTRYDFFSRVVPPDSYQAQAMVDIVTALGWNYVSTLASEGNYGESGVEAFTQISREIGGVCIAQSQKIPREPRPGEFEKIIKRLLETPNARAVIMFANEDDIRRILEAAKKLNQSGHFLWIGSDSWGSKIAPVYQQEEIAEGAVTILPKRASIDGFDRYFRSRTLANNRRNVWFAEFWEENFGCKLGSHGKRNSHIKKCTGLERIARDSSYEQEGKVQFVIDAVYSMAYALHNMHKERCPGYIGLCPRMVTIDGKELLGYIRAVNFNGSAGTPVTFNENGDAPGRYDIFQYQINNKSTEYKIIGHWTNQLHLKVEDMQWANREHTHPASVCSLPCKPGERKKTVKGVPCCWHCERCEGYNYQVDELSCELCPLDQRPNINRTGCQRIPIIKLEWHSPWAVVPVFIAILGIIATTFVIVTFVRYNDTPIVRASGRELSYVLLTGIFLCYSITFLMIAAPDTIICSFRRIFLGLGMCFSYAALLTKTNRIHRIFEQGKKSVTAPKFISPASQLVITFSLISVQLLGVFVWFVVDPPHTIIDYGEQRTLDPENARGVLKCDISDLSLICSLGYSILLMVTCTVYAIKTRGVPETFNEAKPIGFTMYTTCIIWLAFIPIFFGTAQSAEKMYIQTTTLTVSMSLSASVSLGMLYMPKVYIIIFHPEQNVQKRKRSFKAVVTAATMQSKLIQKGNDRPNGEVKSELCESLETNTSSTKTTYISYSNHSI

Compound | z-score
CCSc1ccccc1C(=O)NCCCn1ccnc1 | -0.449
CN(C(=O)c1cc2n(n1)C(C(F)(F)F)CC(c1ccco1)N2)c1ccc(OC(F)(F)F)cc1 (stereo not given) | -0.386
Cc1cc(C)c(C#N)c(SCC(=O)Nc2nnc(-c3ccccc3)s2)n1 | -0.27
O=C(CSCc1ccc([N+](=O)[O-])cc1)NN=C1CCCCCC1 | 0.0282
CC(C)(CO)Nc1nc(Nc2ccccc2)nc(Nc2ccccc2)n1 | -0.601
CCn1c(=O)cc(SCC(=O)Nc2cccnc2)c2ccccc21 | 0.264
CCCOc1ccc(/C(O)=C2/C(=O)C(=O)N(CCN(C)C)C2c2ccc(OC)c(OC)c2)cc1 (stereo not given) | 0.296
COc1ccc(CC(=O)OCC(=O)NC(=O)NC23CC4CC(CC(C4)C2)C3)cc1 | -0.113
CCOC(=O)c1nc(S(C)(=O)=O)ncc1Cl | -0.262
CC(C)C(NC=C1C(=O)OC(C)(C)OC1=O)C(=O)O (stereo not given) | -0.217
COc1cc(/C=N/NC(=O)COc2ccc(C)cc2)ccc1OC(=O)c1cccs1 | -0.0521
CCC1(C)Cc2c(sc3nc(SCC(=O)O)[nH]c(=O)c23)CO1 (stereo not given) | -0.292
Cc1ccc(C(=O)NCC(=O)OCC(=O)NC2CCS(=O)(=O)C2)cc1C (stereo not given) | -0.114
O=C(CCc1nc(-c2ccccc2)no1)NC1CCCCC1 | 0.0483
C=C(C)C1CC=C(C)/C(=N\NC(=O)CNc2ccccc2OC)C1 (stereo not given) | 0.0831
O=C(O)c1ccc2c(c1)C(=O)N(C(Cc1ccccc1)C(=O)O)C2=O (stereo not given) | -1.48
C/C(=N\NC(=O)c1ccccc1C)c1ccc(N2CCOCC2)cc1 | -0.197
O=C(CNC(=O)c1ccco1)OCc1ccc(C(=O)Oc2ccccc2)cc1 | -1.07
CC1CCCN(C2=C(NS(=O)(=O)c3ccc(Cl)cc3)C(=O)c3ccccc3C2=O)C1 (stereo not given) | -0.0456
COc1ccc2oc(C)c(C(=O)Cn3ccnc3)c2c1 | -0.317
CC(C)CNC(=O)CN(C1CCCCC1)S(C)(=O)=O | -0.0371
CCCCCCCCNc1ncnc2ccccc12 | 0.00268
Cc1ccc2c3c(cccc13)-c1ccccc1C2=O | -0.136
Cc1cccc(OCCNC(=O)c2ncn[nH]2)c1 | 0.191

Compound | z-score
CN(C)C(=O)N1CCC(C(=O)NCc2ccc3c(c2)OCO3)CC1 | 0.171
Cc1cccn2c(NC(=O)c3cccs3)c(-c3ccccc3)nc12 | -0.404
CCc1ccc(NC(=O)COn2nnc3ccc(S(=O)(=O)N(C)C)cc32)cc1 | -0.27
C=CCn1c(CSc2nc3ccccc3s2)nnc1SCC(=O)NCCN1CCOCC1 | 0.312
CSc1cc(-c2ccc(Cl)cc2)c(C(=O)N2CCCC2)s1 | 1.8
O=C(Nc1cccc(S(=O)(=O)Nc2ccc(Cl)cc2)c1)c1cc2c(s1)CCCC2 | -0.189
COC(=O)c1ccccc1NC(=O)c1ccc(COc2ccc3c(c2)CCC3)cc1 | -0.271
COc1ccc(/C=C/C(=O)c2nc3ccccc3n2CC(=O)c2ccc(OC)cc2)cc1 | -1.11
COc1ccccc1N1CCN(C(=O)c2cc(-c3ccc(C)cc3)on2)CC1 | -0.356
COCCCNCCOCCOc1ccc(C)cc1Br | -0.0942
O=C(COc1ccc(Cl)cc1Cl)NC(=O)N1CCOCC1 | 0.0554
Clc1ccccc1-c1nc(-c2cccnc2)no1 | 0.216
COc1ccc2c(c1)c(C(O)CN1CCN(Cc3ccc4c(c3)OCO4)CC1)c(C)n2C (stereo not given) | -0.597
CC(C)(C)C(=O)c1sc2nc(-c3cccs3)cc(C(F)(F)F)c2c1N | -0.0733
CN(CC(=O)O/N=C(\N)c1ccccn1)S(=O)(=O)c1cc(Cl)ccc1Cl | -0.477
Clc1cccc(/C=N\Nc2nccs2)c1 | -0.201
O=C(CS(=O)CC(=O)N(CC(=O)NC1CCCC1)C1CCCCC1)Nc1ccc(F)cc1 (stereo not given) | -0.57
COc1ccc(OC)c(-c2cc(C(=O)Nc3c(C)nn(Cc4ccccc4Cl)c3C)no2)c1 | -0.834
CCn1cc(C(=O)OCc2cccc(Br)c2)c(=O)c2ccc(C)nc21 | -0.797
COc1cccc(NC(=O)C2CCCCC2)c1 | 0.115
Cc1nn(-c2ccccc2)c(NC(=O)c2cccs2)c(-c2ccc(Cl)cc2)c1=O | -0.358
Cc1ccc(C)c(NC(=S)NCCc2ccc(S(N)(=O)=O)cc2)c1 | -0.108
O=[N+]([O-])c1ccc(N2CCOCC2)cc1NC(c1ccccc1)c1ccccc1 | -0.00498
Cc1cccc(-c2nsc(SCC(=O)Nc3nccs3)n2)c1 | -0.757

Compound | z-score
CCOC(=O)c1c(C)oc2c(F)c(F)c(F)c(F)c2c1=O | -0.807
O=C(C[n+]1cnn(CC(=O)c2ccc(Cl)cc2Cl)c1)c1ccc([N+](=O)[O-])cc1 | 0.134
CCC(=O)c1ccccc1OCCCn1cncn1 | 0.311
COc1ccc(C(C)=O)cc1CN1C(=O)NC2(CCCCC2)C1=O | -0.229
CCCCC1C2=C(CC(C)(C)CC2=O)OC2=C1C(=O)CC(C)(C)C2 | -0.821
CCc1cccc2c(C(=O)CSc3nncn3-c3ccc(OC)cc3)c[nH]c12 | -0.101
COc1ccc(-c2noc(CCC(=O)NCC3CCN(Cc4cccc(C)c4)CC3)n2)cc1 | 0.183
O=C(C1CCC1)N1CCc2cc(S(=O)(=O)N3CCCCC3)ccc21 | 1.4
COc1cccc(-c2nc(CC(=O)O)cs2)c1OC | 0.492
O=c1cc(N2CCc3ccccc32)[nH]c(=O)n1-c1ccc(Br)cc1 | -0.058
CCOc1cc(/C=N/NC(=O)CNc2ccc(C)cc2)ccc1OC(=O)c1ccccc1 | 0.0308
Cc1ccc2cc3c(N)c(C(=O)N4CC(=O)Nc5ccccc54)sc3nc2c1 | -0.158
CCCCCn1nc(-c2ccccc2)c2nc3ccccc3nc21 | active: 14.9
Cc1c(C(=O)NC2CCCc3ccccc32)oc2ccc(S(=O)(=O)N3CCOCC3)cc12 (stereo not given) | -0.491
CCN(CC)CCCN1CC(O)=C(c2nc3ccccc3s2)C1=N | -0.338
CCOC(=O)Nc1ccc2c(c1)N(C(=O)OCCN(C)C)c1ccccc1CC2 | 0.202
CC12C(=O)N(c3ccccn3)C(=O)C1C1C=CC2C1 (stereo not given) | 0.329
Cc1ccc(N2CC(C(=O)Nc3cccc(F)c3)CC2=O)cc1 (stereo not given) | 0.0105
COc1ccc(N2CCN(c3oc(COc4ccc(Cl)cc4Cl)nc3C#N)CC2)cc1 | 1.29
CCOC(=O)/C(C#N)=C/c1cc2ccccc2nc1N1CCOCC1 | -0.315
CCc1ccccc1NC(=O)/C(=C/c1ccccc1)c1ccccc1 | -0.629
CCN(CC)C(=O)C1CCC(CNS(=O)(=O)c2cccc3cccnc23)CC1 (stereo not given) | 0.393
